# Measurements as given in publication PMC7819943, “Rice protein-binding microarrays: a tool to detect cis-acting elements near promoter regions in rice”.
# The other results are listed elsewhere or left out.
# Molecular target: T1, OsWOX13 (Oryza sativa, UniProt Q5QMM3 1-267)
# T1 sequence: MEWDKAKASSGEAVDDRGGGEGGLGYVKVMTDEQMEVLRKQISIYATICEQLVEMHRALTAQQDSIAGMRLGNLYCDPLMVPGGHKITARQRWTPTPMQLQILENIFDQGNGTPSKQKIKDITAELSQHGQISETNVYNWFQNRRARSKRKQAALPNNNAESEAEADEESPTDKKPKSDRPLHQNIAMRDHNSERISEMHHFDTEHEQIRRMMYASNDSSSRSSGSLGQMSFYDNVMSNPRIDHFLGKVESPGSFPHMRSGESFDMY
# Test: protein-binding microarray (RPBM); PBS, 2% BSA, 51.3 ng/ul salmon testes DNA, 50 uM zinc acetate, 200 nM TF, 25 C, 1 h; high values mean tight binding
# Conditions: protein: recombinant; tags: N-terminal polyhistidine and DsRed monomer fusion (pET32a); label: CyDye5-dUTP incorporated in the synthesized complementary strand; 3' TTTTT single-stranded linker to array surface; dsDNA, one strand shown
# Outline: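 The binding signal is fluorescence intensity per feature, in arbitrary units, read on an Axon 4000B scanner. Polyhistidine- and DsRed-tagged transcription factors (N-terminal fusions) from E. coli BL21-CodonPlus were purified on Ni–NTA and applied at 200 nM for 1 h at 25 °C to a double-stranded, BSA-blocked custom Agilent array in buffer with 50 µM zinc acetate.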
row,Sequence,binding signal
1,TTAATTCTATCTAGTAGTAGAGTTAGTTATTTATATATTACGGAGTCACCTAGTGCAG,5310 fluorescence intensity (a.u.)
2,ATAATAAGATTAAAATAACATTTACCCGTTGCAAAGCACGCGGAGTCACCTAGTGCAG,3610 fluorescence intensity (a.u.)
3,CTAAGAGCTAATTGTACAACTAATAAAATCCAAGTGCGCTCGGAGTCACCTAGTGCAG,3420 fluorescence intensity (a.u.)
4,ATGCTTAATAGAAAATCTTAAATAAATTTATCCTAAAATCCGGAGTCACCTAGTGCAG,7750 fluorescence intensity (a.u.)
5,TTTATCAAATTATCGTTTGTGTACTCTAGCTGGTCCTGGACGGAGTCACCTAGTGCAG,3870 fluorescence intensity (a.u.)
6,TTAAATTAATGTATTACTAAATGGTTTGTAATAGAATATTCGGAGTCACCTAGTGCAG,12700 fluorescence intensity (a.u.)
7,TGAACTTCTGATTGACAAACCAAAGGAAGAAGTTGCAAGTCGGAGTCACCTAGTGCAG,28900 fluorescence intensity (a.u.)
8,AATAATTTTCTCATTTTCTTTAACAGAAGATGACAATGCACGGAGTCACCTAGTGCAG,19100 fluorescence intensity (a.u.)
9,GTACTCGGCACCAATCACGTTGGCACCGGCCTCCTTCGCACGGAGTCACCTAGTGCAG,3210 fluorescence intensity (a.u.)
10,ACTATGACATTATTTAAACAAGTTTTATACTGAGACACTTCGGAGTCACCTAGTGCAG,5830 fluorescence intensity (a.u.)
11,TGCTAACTTGAGATGAATGTCGAACTCCTAATTGCAGCTCCGGAGTCACCTAGTGCAG,3470 fluorescence intensity (a.u.)
12,TCCTATAGAAATTGATGAGGATCTAAGAATACCTTCACCTCGGAGTCACCTAGTGCAG,6770 fluorescence intensity (a.u.)
13,CTTAAAATTTGCAACAATAAAATTAACTGTATCTGAACATCGGAGTCACCTAGTGCAG,3670 fluorescence intensity (a.u.)
14,GCCCACCGCCAATCACTCATCCAAGTATCCAACAAAGAACCGGAGTCACCTAGTGCAG,4480 fluorescence intensity (a.u.)
15,AGGTTAATTAATAATATAAGGCGTGTGTATATATTGGTGTCGGAGTCACCTAGTGCAG,42300 fluorescence intensity (a.u.)
16,TGCTTTAATTATGAGAAAGAAACCAATGGCTGAACCATAGCGGAGTCACCTAGTGCAG,11000 fluorescence intensity (a.u.)
17,GTAGTTGATCAGATTGAGATAGCAGATCGATAAAATACAGCGGAGTCACCTAGTGCAG,4020 fluorescence intensity (a.u.)
18,ATCGGAGACTGACTGAGTGAAGGTTGGTTGGTTCACACTTCGGAGTCACCTAGTGCAG,4540 fluorescence intensity (a.u.)
19,TATAATTGATTATTGTGACCTCATGATAGAGACAAGACCACGGAGTCACCTAGTGCAG,53500 fluorescence intensity (a.u.)
20,AGCTTAATTACCATGAATACAATGATACAGCCGGCTTAATCGGAGTCACCTAGTGCAG,17600 fluorescence intensity (a.u.)
21,GTGGAATAAATTAGCTGGATTTTGCAATGTGATCCCCATCCGGAGTCACCTAGTGCAG,10900 fluorescence intensity (a.u.)
22,CGTAAACTGGTACATATCGCCTGATGTACTGTGCAAGTTGCGGAGTCACCTAGTGCAG,20900 fluorescence intensity (a.u.)
23,TACAGATTGCAACAGTATTCATCTATAAATGTTCCATCACCGGAGTCACCTAGTGCAG,4670 fluorescence intensity (a.u.)
24,GAGATGATTGTTTCCAAATGAATGATGATTTAAGTGTATTCGGAGTCACCTAGTGCAG,52000 fluorescence intensity (a.u.)
25,AAACTGATTGTATGCAGGTGGTTTCAACGATGATGGATGGCGGAGTCACCTAGTGCAG,31600 fluorescence intensity (a.u.)
26,TCCTAAATGACGTGACAGGGCGTGCATACGCAGGAGTTGACGGAGTCACCTAGTGCAG,5380 fluorescence intensity (a.u.)
27,ACGGATGTTGTGATTAATTGAAAAGTAGATGTAGGTGGAACGGAGTCACCTAGTGCAG,27400 fluorescence intensity (a.u.)

row,Sequence,binding signal
1,AAGGGGCGGACTGATTTGTAATGAAACAACTATTCCTTCCCGGAGTCACCTAGTGCAG,6800 fluorescence intensity (a.u.)
2,GCTTAACTGAATCAACATGTATTTTAAAGTGTCAGCGTTACGGAGTCACCTAGTGCAG,16600 fluorescence intensity (a.u.)
3,TCTAATAATCTAGGAAATAAACAACTAACCGTTTATTATACGGAGTCACCTAGTGCAG,3470 fluorescence intensity (a.u.)
4,AAACTTTAATTTATCAACCATAAAAGAAACAATTAGAAGGCGGAGTCACCTAGTGCAG,6940 fluorescence intensity (a.u.)
5,AAGAAAATACTAATTAATCATGCACCAAACTCCATATCAACGGAGTCACCTAGTGCAG,7140 fluorescence intensity (a.u.)
6,GTGATTGAAATGGATCCTGGTCGGAAATGAATCCTGGTCGCGGAGTCACCTAGTGCAG,43700 fluorescence intensity (a.u.)
7,AATCGATGAAATTAAATCAATGTTTAATTTCATTACTTATCGGAGTCACCTAGTGCAG,8710 fluorescence intensity (a.u.)
8,CAGTAATGAATTGCATCACCCAGTTACCCCATGAGACCGACGGAGTCACCTAGTGCAG,4370 fluorescence intensity (a.u.)
9,CACGATTGACCGTTACCTATAGTCCACACACATATAGGTACGGAGTCACCTAGTGCAG,13500 fluorescence intensity (a.u.)
10,TAACTCATTATTATAATTACTATTATTCTACTCTGATGAACGGAGTCACCTAGTGCAG,3740 fluorescence intensity (a.u.)
11,TATAATTAAATGAGGTGAGAAGTATGGATGCTAGTGTACACGGAGTCACCTAGTGCAG,11000 fluorescence intensity (a.u.)
12,CATATGATGATTTGCTCAACGGTTACGCCAGAACGCACCTCGGAGTCACCTAGTGCAG,11800 fluorescence intensity (a.u.)
13,GCATAATTATTCTATGATTACTTTGATGCGTACGTGAATGCGGAGTCACCTAGTGCAG,44800 fluorescence intensity (a.u.)
14,ATTCAGATTGGCTGGTATTTGCGCGTACAATATATTATAACGGAGTCACCTAGTGCAG,6620 fluorescence intensity (a.u.)
15,TTAATTGCTTTTAATTAATCGCAGTAGTTCATCTCGAAAACGGAGTCACCTAGTGCAG,39600 fluorescence intensity (a.u.)
16,TTGTTGTGAATTAACTGTTAGAACCAAAATGATTATATTGCGGAGTCACCTAGTGCAG,4080 fluorescence intensity (a.u.)
17,GTTAAGTGGTACGAATTTGATTGCACTTGTAATGAACTTACGGAGTCACCTAGTGCAG,4670 fluorescence intensity (a.u.)
18,ACATTTAATGTGATGGAATTTTGAAGGGAACTAAACACTGCGGAGTCACCTAGTGCAG,9580 fluorescence intensity (a.u.)
19,TAACCTTAATTAATTGATTAAATTACAAATATTCTAGCCCCGGAGTCACCTAGTGCAG,44000 fluorescence intensity (a.u.)
20,TGATTTGATTGGTTGATCCCTTCGAAAGTCAATTTGCATTCGGAGTCACCTAGTGCAG,50000 fluorescence intensity (a.u.)
21,AAATCCTAATTAAATCTCATCAAAACTACTGTAAATTCGGCGGAGTCACCTAGTGCAG,5200 fluorescence intensity (a.u.)
22,CAAATTAATTTACTTTTCAACTATCTAAATTAATACTCAACGGAGTCACCTAGTGCAG,38300 fluorescence intensity (a.u.)
23,TCTGTAACATGTAGGTTCTAATTGATGCTTAGAAAATGTGCGGAGTCACCTAGTGCAG,6700 fluorescence intensity (a.u.)
24,CTTAACAACTGAACTGATTGAGACAGTAGATGAAATGGAACGGAGTCACCTAGTGCAG,21400 fluorescence intensity (a.u.)
25,TGGCATTTATACTAATTTGACCGAGGGACCACATATCAGTCGGAGTCACCTAGTGCAG,4830 fluorescence intensity (a.u.)
26,CTCCCTAATTTTAGAAACTAAACACAACAATTCTTATATCCGGAGTCACCTAGTGCAG,7510 fluorescence intensity (a.u.)
27,CAACCAAATTTCCAATTTTGGCGTGAACTAAACATAGCCTCGGAGTCACCTAGTGCAG,4170 fluorescence intensity (a.u.)
